Experimental data published in the supplement of paper PMC3334620.
Over roughly 33,000 sequences, “E-score (-0.5 to 0.5)” has its median near -0.054; the highest 2% begin near 0.35. Some of the results follow.

target: T1, Stb5 (UniProt P38699); assay: PBM E-score (8-mer binding enrichment) (E-score (-0.5 to 0.5)); higher = stronger / more preferred TF binding; most listed sequences are background and not binding sites; conditions: protein concentration: 200 nM; construct: GST-full length
T1 sequence: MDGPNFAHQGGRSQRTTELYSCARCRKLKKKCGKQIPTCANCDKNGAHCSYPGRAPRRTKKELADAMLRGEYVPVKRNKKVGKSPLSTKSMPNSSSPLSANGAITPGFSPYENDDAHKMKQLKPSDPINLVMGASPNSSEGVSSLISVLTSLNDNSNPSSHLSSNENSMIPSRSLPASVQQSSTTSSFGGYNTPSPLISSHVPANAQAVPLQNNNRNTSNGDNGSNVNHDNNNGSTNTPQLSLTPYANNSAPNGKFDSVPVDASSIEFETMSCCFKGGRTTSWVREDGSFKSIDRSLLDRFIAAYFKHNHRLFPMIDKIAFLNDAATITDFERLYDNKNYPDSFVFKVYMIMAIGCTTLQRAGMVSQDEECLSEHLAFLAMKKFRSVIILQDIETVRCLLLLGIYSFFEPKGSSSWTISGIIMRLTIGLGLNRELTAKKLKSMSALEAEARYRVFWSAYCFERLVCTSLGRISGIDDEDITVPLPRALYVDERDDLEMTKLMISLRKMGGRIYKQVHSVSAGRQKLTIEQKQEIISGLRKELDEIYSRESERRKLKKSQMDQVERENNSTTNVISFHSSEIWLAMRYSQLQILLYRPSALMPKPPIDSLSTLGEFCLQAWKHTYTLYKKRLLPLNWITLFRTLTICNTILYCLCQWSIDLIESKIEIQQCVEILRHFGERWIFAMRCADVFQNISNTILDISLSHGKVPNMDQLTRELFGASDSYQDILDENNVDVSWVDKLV
Outline: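 Using PURExpress in vitro transcription/translation, GST-tagged yeast transcription factors were made in full-length or DNA-binding-domain form. These were applied at about 100-200 nM to double-stranded universal all-10-mer Agilent arrays, and bound protein was detected with fluorescent anti-GST. Scans were normalised with masliner before the Universal PBM Analysis Suite assigned E-scores to ungapped eight-base words pooled with their reverse complements.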

Sequence | PBM E-score
GGCCTATA | 0.16
CTACTCTC | -0.151
ATACGCTC | 0.0104
AGTGCGGC | 0.181
AATTTTAG | -0.263
CGTTGGTC | -0.0222
CCTTTCGC | 0.236
ACTCCTAT | -0.00623
CACCGTAG | 0.265
CGCCCGCG | 0.266
CGGGTACA | 0.195
CCTTCCCA | -0.0782
AGTGGGAT | -0.213
AAGACCCA | -0.227
AAATAACA | 0.176
GCACACGC | -0.13
CTAATACA | -0.109
GATACGGC | 0.141
TAATCTAA | 0.0106
CCAGAAGC | 0.0499
ATAGCCCC | 0.317
GCCAAGCA | -0.299
CAGATCAA | -0.0808
CCATCAAA | -0.102
GTATCATA | 0.00154

Sequence | PBM E-score
AAGCCTTC | -0.212
CTGGACTC | -0.169
ACGTCAGA | -0.346
CGGTGAAG | 0.12
CCGGCGGC | 0.327
CACGACAC | -0.0256
CCACAAGA | -0.188
GGATAAAA | 0.216
ATAGCATG | -0.251
AGACACAC | -0.247
CGAACCCC | 0.28
ATGTTGTC | -0.063
AGGTGCGC | 0.0592
CTGAACCC | -0.0816
CCAACGAA | -0.164
GAAGTTCC | 0.0956
GAATTCTA | -0.248
GTACTCCA | -0.229
GCGACAAC | -0.0148
AAGTAACC | -0.0633
GCCTAATA | 0.103
ATGCGTCA | -0.306
CCTCATTC | -0.192
TAGACCGA | 0.208
CTATAAAA | -0.00164

Sequence | PBM E-score
ATCGTATG | -0.331
AACAACTA | -0.0698
TCCAGCGA | -0.167
CGAGGAGC | -0.0797
GCAACTAC | 0.0347
CTCTATGC | -0.153
GTTACCGA | 0.197
GCTAGCCA | -0.154
CACGACTA | -0.254
TAGAACAA | -0.15
CACGGGCC | 0.294
CGGATTAA | 0.231
CGCGTATA | 0.0871
AGGGGCAC | -0.238
GTCCGAAC | 0.283
CACAAACG | 0.124
CCGTGGAC | 0.222
CGGGATAA | 0.22
AGTTCAGG | -0.0729
AGTGGACA | -0.0574
ATCTAGCG | -0.0929
CCTTTGGC | -0.232
CGAATTTC | -0.0899
CACTAGAA | -0.0294
CACCTCCG | 0.182

Sequence | PBM E-score
ACCTAAGG | -0.204
ATGGGATG | -0.069
CTGGCACA | -0.364
ATTTTCGC | 0.162
GCGTAGTA | -0.0643
AATAGCAC | 0.17
CAAATGAC | -0.143
GCCAGGCC | -0.0319
AACTCAAC | -0.0587
GTCATCAA | -0.122
AAGCGAGA | -0.111
ACCTCGGA | 0.174
GACCCGGC | 0.179
GCGGCACA | 0.173
GGTTCGGA | 0.234
CACGTTGA | -0.235
TCTACAGA | 0.0295
ATGAGCGA | -0.0585
AGCAAACG | -0.0464
GTTTAGCA | 0.0785
ATTTAACC | 0.25
AACGTCAT | -0.0687
AGTTAGGC | -0.144
AGCATCAA | -0.209
ACGTCCGG | 0.244

Sequence | PBM E-score
GGGCTTTA | 0.326
CACTTGTC | 0.0179
ACGCTGAA | -0.102
GCGCCTCC | -0.0611
TAACTCCA | 0.182
CTAGCCGA | -0.0323
CTTATGGC | -0.0192
GTCCAACA | -0.0985
AAGACCGT | 0.382
AGTCCCGA | 0.342
CTCGCTGC | -0.0749
CTTCACAC | -0.0447
ATAGTAGG | 0.0158
AGGTTCAA | -0.0479
GGGCGGAC | 0.408
TACCTAAA | 0.029
CTGTGCGC | -0.0199
ATAACTGA | -0.0343
TGGCACAA | -0.295
GTTGAAAC | 0.112
GAGTAATA | 0.0626
ACATTACT | -0.131
CCATTAAC | -0.181
AGACTCTC | -0.197
TCGTGGAA | 0.00034

Sequence | PBM E-score
CGAGATTA | 0.0972
AAGAAGCC | 0.0812
CTCCGGGA | 0.267
AGATGCGA | 0.0797
CCAAGAGA | -0.246
CATCTGCG | -0.0145
CGTTTTGA | -0.0622
AGTTGAAA | 0.215
ATATGTGA | -0.172
CCCTCTCC | -0.338
CCGACAAG | 0.266
CCAGTGGA | -0.326
ACGGTGAT | 0.367
AGCAACAA | 0.033
CAACGCGC | -0.0988
AATATCTC | 0.251
ACAGAGCA | -0.102
ACTCATTA | -0.104
GTCCTCGA | -0.265
ATATTGCG | 0.16
GAACTGAC | -0.12
CTGGTCTC | -0.359
ACCCATTG | -0.196
ACGTTGCC | -0.204
GCAACCAC | -0.0592

Sequence | PBM E-score
AGTTGGAG | -0.0719
CCACTAAA | -0.12
ACAACGCA | -0.159
AATACCCC | 0.304
ATTTGATC | 0.0711
CGCCTCAG | -0.0198
CCTAGAAC | -0.00851
ATGGAATA | 0.0263
AAAACCAG | -0.14
CCTATCTA | -0.116
ATCCGTCG | 0.219
TAATCCCA | 0.159
GATTGGAC | -0.051
CAGGCGGA | 0.271
GTCACTCA | -0.124
TAAAGAGA | -0.0758
GCAATCTA | -0.0252
ACTGCGTG | -0.174
CAGCGATC | 0.0622
TGATAACA | -0.0628
GCAGCTCA | -0.277
CCACCTGA | -0.124
